Reference: PubChem BioAssay AID1345082 (National Center for Advancing Translational Sciences (NCATS), 2018)
The campaign covered roughly 94,000 compounds. About 4,000 (4.3%) were called active. Inconclusive results, whose numbers are uncertain, are shown with a selection of clear calls. Calls follow the shape of the dose curve; as a rule, active = well fitted inhibition curve with a large enough effect; inconclusive = small, poorly fitted or top-dose-only effect; inactive = no such curve, though single readings can be large or run the other way. Where the call is inconclusive, the potency comes from a doubtful curve fit.

assay: Cytotoxic Profiling in NIH 3T3 Cell Line of Diverse Libraries Using Quantitative High-Throughput Screening; conditions: NIH 3T3 viability, CellTiter-Glo ATP luminescence, 48-72 h; activity change, negative = cytotoxicity: at 96.7 µM (top of the series) unless noted; series mostly up to 96.7 µM; also: nearly all actives have a fitted effect of over 55% in size
Method in brief: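 Mouse fibroblast NIH 3T3 cells, 400 per well, received compound via pintool and were incubated for 48 or 72 hr prior to CellTiter-Glo ATP luminescence measurement.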
% is scaled to controls: 0 for no effect and ±100 for the full control effect; potency is read from the fitted curve at half-maximal effect; tags tell the direction and shape of the fitted curve.

Row | SMILES | Potency | activity change, negative = cytotoxicity | outcome
1 | COc1ccc(Cn2c(-c3ccc(F)cc3)nc(C)c(CCO)c2=O)cc1F | inconclusive: 20 µM [inhibitor, full curve, poor fit] |  | 
2 | COc1ccccc1N1CCCc2ncc(C(=O)N3CCCC[C@@H]3c3ccccc3)cc21 | active: 70.8 µM |  | 
3 | O=C(c1cn(-c2ccccc2)nn1)N1CCCCCC1c1ccco1 (stereo not given) | inconclusive: 39.8 µM [inhibitor, partial curve, poor fit] |  | 
4 | COc1ccc(-c2ccc3nnc(CNC(=O)C(C)Oc4cccc(Cl)c4)n3n2)cc1 (stereo not given) | inconclusive: 50.1 µM [inhibitor, partial curve, poor fit] |  | 
5 | O=C(c1ccccc1F)N1CCC2(CC1)CC(=O)N(c1ccccc1)c1ccccc1O2 | inconclusive: 39.8 µM [inhibitor, partial curve, poor fit] |  | 
6 | COc1cccc(OCc2nnc(C(=O)N3CCC[C@@H]3c3nc4ccccc4[nH]3)n2-c2ccccc2)c1OC | inconclusive: 44.7 µM [inhibitor, partial curve, poor fit] |  | 
7 | COc1ncc(-c2ccnc(-c3nnc(C)n3CCc3ccccc3)c2)cn1 | active: 100 µM |  | 
8 | C[C@@H]1CN(c2ccc3nnc(-c4ccccn4)n3n2)C[C@H](C)O1 | active: 79.4 µM |  | 
9 | O=C(NCc1ccc(Cl)cc1)c1cc(-c2ccc(Cl)cc2Cl)c2nncn2n1 | active: 35.5 µM |  | 
10 | O=C(NCc1cc(F)ccc1F)C1CCN(C(=O)c2ncn3c2COC(c2ccccc2)C3)CC1 (stereo not given) |  | inactive: -7.24% | 
11 | Cc1cc2nc(CO[C@H]3CN(Cc4ccc(C(F)(F)F)cc4)C[C@H]3F)[nH]c2cc1C |  | inactive: -23.7% [at 138 µM] | 
12 | Cc1nc(-c2cn(C3CCCN(C(=O)c4cccc(Cl)c4)C3)nn2)no1 (stereo not given) | inconclusive: 70.8 µM [inhibitor, single point] |  | 
13 | CNC(=O)c1cc(C2CC2)nc2onc(C3CCN(C(=O)c4ccc(OC)cc4)CC3)c12 |  | inactive: -1.02% | 
14 | O=C(C1CCN([S+](=O)([O-])c2cccs2)CC1)N1CCCC1c1nc2ccncc2[nH]1 (stereo not given) |  | inactive: 1.95% | 
15 | O=C1CC(c2ccccc2)N(Cc2cn[nH]c2-c2cccs2)CCCCCN1 (stereo not given) | inconclusive: 44.7 µM [inhibitor, partial curve, poor fit] |  | 
16 | COc1ccc(CN2CCCC3(CC(Cc4ccccc4)=NO3)C2)cc1 (stereo not given) | inconclusive: 31.6 µM [inhibitor, partial curve, poor fit] |  | 
17 | N#Cc1cccnc1-c1ccc(C(=O)N2CCC(NC(=O)c3ccc(Cl)nc3)CC2)cc1 | inconclusive: 50.1 µM [inhibitor, partial curve, poor fit] |  | 
18 | Cc1nn(-c2ccccc2)c2c1C(C1CC1)N(CC1CN(C(=O)c3ccc(F)cc3)C1)C2=O (stereo not given) | inconclusive: 17.8 µM [inhibitor, full curve, poor fit] |  | 
19 | CCC(=O)N1CCC2(CC1)c1[nH]c3ccccc3c1CCN2C |  |  | inactive
20 | COc1ccc(NC(=O)O[C@@H]2CO[C@H]3[C@@H]2OC[C@@H]3NC(=O)Nc2ccc(C(C)C)cc2)cc1 |  | inactive: -16.2% | 
21 | CC(C)N1CCN(C(=O)CCC2CCN(S(=O)(=O)c3ccccc3F)CC2)CC1 |  | inactive: -0.494% | 
22 | Cc1ccc(C2=NC3(CCN(C(=O)Cc4cccc(F)c4)CC3)ON2)cc1 | inconclusive: 39.8 µM [inhibitor, partial curve, poor fit] |  | 

Row | SMILES | Potency | activity change, negative = cytotoxicity | outcome
23 | CC1=C[C@@H](CN2CCN(c3ccccc3)CC2)[C@H](C(C)C)C[C@H]1Cc1nnc(-c2cncn2C)o1 | inconclusive: 50.1 µM [inhibitor, partial curve, poor fit] |  | 
24 | Cc1nn(C)c2nc(NCCCOC3CCCC3)sc12 | inconclusive: 11.2 µM [inhibitor, full curve, poor fit] |  | 
25 | CCCN1CCC2(CCN(C(=O)Nc3ccccc3)CC2)Oc2ccccc21 | inconclusive: 50.1 µM [inhibitor, partial curve, poor fit] |  | 
26 | O=C1CC2(CCN(Cc3cccc4ccccc34)CC2)Oc2ccccc21 | inconclusive: 70.8 µM [inhibitor, partial curve, poor fit] |  | 
27 | CCC(O)c1cc2n(n1)CCN(C(=O)c1ccc(-c3ccccc3)n1C)C2 (stereo not given) | inconclusive: 22.4 µM [inhibitor, full curve] |  | 
28 | Cc1ccc(S(=O)(=O)N2CC[C@H](c3nnc(-c4ccccc4)o3)C2)cc1 | inconclusive: 17.8 µM [inhibitor, full curve, poor fit] |  | 
29 | CC(C)c1ccc(CN2CCc3c(n(Cc4ccccc4)n(-c4ccccc4)c3=O)C2)cc1 | inconclusive: 5.62 µM [inhibitor, partial curve, poor fit] |  | 
30 | Cc1ccc(S(=O)(=O)N2CC[C@H]3NC(=O)N(c4ccc(C(C)C)cc4)C(=O)[C@H]32)cc1 |  | inactive: -0.203% [at 174 µM] | 
31 | CNC(=O)c1cc(C)nc2onc(C3CCCN(C(=O)c4cccc(Cl)c4)C3)c12 (stereo not given) | inconclusive: 6.31 µM [inhibitor, full curve, poor fit] |  | 
32 | COc1ccc(C(=O)N2CCC3(CC2)N=C(c2ccc(Cl)cc2)NO3)cc1 |  | inactive: -15.5% | 
33 | O=C(NCCc1ccccc1F)c1cn2cc(-c3ccccc3)sc2n1 | inconclusive: 50.1 µM [inhibitor, partial curve, poor fit] |  | 
34 | O=C(NCCCN1CCCCCC1)c1ccc(CC2CCN(C(=O)C3CC3)CC2)cc1 | inconclusive: 44.7 µM [inhibitor, partial curve, poor fit] |  | 
35 | COc1ccc(CC(=O)N2CCC(C(=O)N3CCC(N4CCCC4=O)CC3)CC2)cc1 |  | inactive: 2.4% | 
36 | CC(=O)N1CCn2c(nnc2C2CCCN2Cc2scnc2C)C1 (stereo not given) |  |  | inactive
37 | Cc1ccc(C)c(-c2cc3c(=O)n(CCNC(=O)c4ccncc4)ccn3n2)c1 | inconclusive: 44.7 µM [inhibitor, partial curve, poor fit] |  | 
38 | CNC(=O)[C@H]1C[C@]2(CCCCN(CCOC)C2=O)N(C(C)=O)[C@H]1c1ccccc1 | inconclusive: 79.4 µM [inhibitor, partial curve, poor fit] |  | 
39 | COc1ccc(CN2C(=O)COC[C@H]2C(=O)Nc2ccc3c(c2)OCCO3)c(OC)c1 |  | inactive: -0.391% | 
40 | CS(=O)(=O)N1C[C@@H]2CN(C(=O)CCn3cccn3)C[C@]2(C(=O)O)C1 |  | inactive: -23.7% | 
41 | COCCN1C(=O)c2ccccc2C(C(=O)Nc2ccc(NC(C)=O)cc2)C12CCCCC2 (stereo not given) |  |  | inactive
42 | COc1cc(OC)cc(C(=O)NCCn2ccn3nc(-c4cccc(OC)c4)cc3c2=O)c1 |  | inactive: -24.2% | 
43 | C[C@H]1CCCN1C(=O)c1nnc(COc2ccccc2)n1-c1ccccc1 | active: 89.1 µM |  | 
44 | Cc1nn2c(c1-c1ccccc1-c1ccccc1)N(C(=O)CN1CCOCC1)CCC2 | inconclusive: 56.2 µM [inhibitor, partial curve, poor fit] |  | 

Row | SMILES | Potency | activity change, negative = cytotoxicity | outcome
45 | CC1=C[C@@H](CNC(=O)CCC(=O)O)[C@H](C(C)C)C[C@H]1Cc1nc2ccc(F)cc2[nH]1 |  | inactive: -7.64% [at 138 µM] | 
46 | CN(C)c1ccc2ncc(Nc3ccc(Cl)cn3)n2n1 | active: 112 µM |  | 
47 | CC(C)Cc1nc(CN(C)C(=O)c2cccc(CCC(C)(C)O)c2)no1 | inconclusive: 50.1 µM [inhibitor, partial curve] |  | 
48 | O=C1CC2(CCN(C(=O)C3CCCN3C(=O)c3ccccc3Cl)CC2)Oc2ccccc2N1 (stereo not given) |  | inactive: -13.1% | 
49 | COC(=O)C1=C(C)N=C2SC=C(CC(=O)N3CCC(C)CC3)N2C1c1cccc(OC)c1 (stereo not given) | inconclusive: 50.1 µM [inhibitor, partial curve, poor fit] |  | 
50 | O=C(NCCC1=CCCCC1)c1c(OCC2CC2)cc(=O)n2c1CCCCC2 | inconclusive: 35.5 µM [inhibitor, partial curve] |  | 
51 | O=C1c2cnc(-c3cccc(CO)c3)nc2OCCN1Cc1ccccc1 | inconclusive: 17.8 µM [inhibitor, full curve] |  | 
52 | Cc1ccccc1S(=O)(=O)N1CCC(CCC(=O)N2CCc3ccccc3C2)CC1 | inconclusive: 50.1 µM [inhibitor, partial curve, poor fit] |  | 
53 | COCc1ccc2c(c1)c(OC(C)(C)C(=O)Nc1ccn(C)n1)nn2Cc1ccccc1 | inconclusive: 100 µM [inhibitor, partial curve, poor fit] |  | 
54 | Cn1cccc1C(=O)NC1CCc2nn(C)c(=O)n2CC1 (stereo not given) |  | inactive: 3.15% | 
55 | COc1cc(OC)cc(N2C(=O)[C@@H]3C[C@@H](NC(=O)c4ccc(SC)cc4OC)CCN3C2=O)c1 |  | inactive: -33% | 
56 | COc1ccc(-c2cc(C[C@@H]3CC[C@@H]4OC(=O)NC[C@H]4O3)no2)cc1 | inconclusive: 100 µM [inhibitor, partial curve, poor fit] |  | 
57 | CN(C)c1cc(=O)c2ccnc(-c3cccc(C(F)(F)F)c3)c2o1 | inconclusive: 89.1 µM [inhibitor, partial curve] |  | 
58 | COc1ccc(-c2cc(C[C@H]3CNCC[C@H]3CC(=O)NCc3ccccc3)no2)cc1 | active: 112 µM |  | 
59 | COc1ccc(CCC(=O)N2C[C@@H](C(N)=O)[C@H](c3nc(C)no3)C2)cc1OC |  | inactive: -8.72% | 
60 | Cc1noc(C)c1S(=O)(=O)N1CCN(c2ccc3nnc(C4CC4)n3n2)CC1 |  | inactive: -16.2% | 
61 | CCOC(=O)C(Cc1cccc(N2CCN([S+](=O)([O-])c3ccccc3Cl)CC2)c1)OC (stereo not given) | inconclusive: 44.7 µM [inhibitor, partial curve, poor fit] |  | 
62 | CCc1noc(-c2cn(C3CCN(C(=O)c4ccc5[nH]ccc5c4)CC3)nn2)n1 |  | inactive: -14.7% | 
63 | O=C(NCc1ccc(F)cc1)c1nc(-c2ccc(F)cc2)c2cnccn12 | inconclusive: 39.8 µM [inhibitor, partial curve] |  | 
64 | COCCC1(CO)CCCN(c2ncc(F)c(N3CCCC3)n2)C1 (stereo not given) | inconclusive: 44.7 µM [inhibitor, partial curve] |  | 
65 | O=C(Nc1ccc(Cl)cc1)N1CCn2c(nn(-c3ccc(C(F)(F)F)cc3)c2=O)C1 | inconclusive: 44.7 µM [inhibitor, partial curve, poor fit] |  | 
